For this assay, the target named is human platelet glycoprotein Ib alpha (GPIb alpha), on human platelets (human) (UniProt P07359). Kind of assay: cell-based or functional assay.

Our source for the translocation velocity of human platelets on immobilized plasma VWF values is patent publication US20090202429A1.

Chain of UniProt P07359 (P07359 17-652): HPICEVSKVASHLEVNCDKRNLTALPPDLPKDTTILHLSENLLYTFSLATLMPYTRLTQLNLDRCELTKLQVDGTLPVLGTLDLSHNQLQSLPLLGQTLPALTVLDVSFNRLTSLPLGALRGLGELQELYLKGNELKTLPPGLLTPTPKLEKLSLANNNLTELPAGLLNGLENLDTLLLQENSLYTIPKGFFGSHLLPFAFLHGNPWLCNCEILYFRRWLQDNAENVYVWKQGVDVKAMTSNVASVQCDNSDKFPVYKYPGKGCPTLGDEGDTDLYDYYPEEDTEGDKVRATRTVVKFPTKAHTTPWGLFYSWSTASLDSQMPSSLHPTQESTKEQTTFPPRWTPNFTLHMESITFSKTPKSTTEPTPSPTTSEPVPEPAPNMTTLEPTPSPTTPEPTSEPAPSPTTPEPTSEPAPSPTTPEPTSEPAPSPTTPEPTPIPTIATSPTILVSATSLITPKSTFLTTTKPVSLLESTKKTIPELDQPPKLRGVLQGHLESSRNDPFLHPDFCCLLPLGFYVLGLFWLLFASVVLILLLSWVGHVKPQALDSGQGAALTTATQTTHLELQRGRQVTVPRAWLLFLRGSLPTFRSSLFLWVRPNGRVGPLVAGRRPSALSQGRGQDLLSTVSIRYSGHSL

Consider “human plasma VWF (purified from or captured out of human plasma) (a stretch of the chain, sequence not shown) (ligand)”, for which the translocation velocity of human platelets on immobilized plasma VWF is 3.2 µm/sec.
